# Source: PubChem BioAssay AID2675 (National Center for Advancing Translational Sciences (NCATS), 2010)
# About 100 (0.036%) of roughly 280,000 compounds were called active. The inconclusive results got no clear call from the source; some entries with a clear call stand among them for comparison. Calls come from the whole dose curve; as a rule, active = well fitted inhibition curve with a large enough effect in the signal ratio, with a control signal flat (not every such curve was filed as active); inconclusive = small, poorly fitted or top-dose-only effect, or effect the other way, or a change in a side signal; inactive = no such curve, though single readings can be large or run the other way; the % refers to the signal ratio. Where the call is inconclusive, the potency comes from a doubtful curve fit. A note “side channel” means that the fit belongs to a control or component signal, not to the main read-out.
# Biological target: Muscleblind-like protein 1 (Homo sapiens) (UniProt Q9NR56)
# Sequence of UniProt Q9NR56 (Q9NR56 whole entry, looked up): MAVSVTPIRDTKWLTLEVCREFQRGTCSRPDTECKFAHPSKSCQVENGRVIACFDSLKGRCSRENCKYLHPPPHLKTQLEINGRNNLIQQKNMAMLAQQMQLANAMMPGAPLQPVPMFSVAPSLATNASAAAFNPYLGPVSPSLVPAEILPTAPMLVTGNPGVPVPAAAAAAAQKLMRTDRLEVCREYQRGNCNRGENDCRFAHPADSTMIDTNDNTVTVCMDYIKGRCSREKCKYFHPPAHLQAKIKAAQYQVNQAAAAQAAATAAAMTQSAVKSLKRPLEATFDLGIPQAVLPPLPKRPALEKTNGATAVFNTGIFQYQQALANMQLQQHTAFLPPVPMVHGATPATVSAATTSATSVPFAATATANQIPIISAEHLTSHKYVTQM
# Experiment: qHTS Assay for Inhibitors of MBNL1-poly(CUG) RNA binding
# Settings: TR-FRET MBNL1-His/biotin-(CUG)12 binding, 665/545 ratio; activity change, negative = inhibition: at 57.5 µM (top of the series)
# How it was run: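 MBNL1-His + Biotin-(CUG)12, cpd titration 92 nM–58 uM; Tb anti-His Ab 0.055 ng/ul, SA-XL665 5 nM (final); 60 min RT; ratiometric 665/545 nm, Ex 340 nm; normalized to buffer and full-complex controls.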
# % is set by controls: 0 for no effect and ±100 for the full control effect; potency is the fitted concentration of half-maximal effect; tags give direction and shape of the fitted curve or compound fluorescence and quenching.
Structure (SMILES),Potency,"activity change, negative = inhibition"
O=C(/C=C/c1ccco1)Nc1cccc2cccnc12,"inconclusive: 39.8 µM [quencher, side channel, single point]",–
O=C(Nc1cccc(N2CCCC2)c1)c1cccs1,–,inactive: -2.97%
CCOC(=O)CSc1ccc(S(=O)(=O)N2CCCC2)cc1[N+](=O)[O-],"inconclusive: 14.1 µM [quencher, side channel, partial curve]",–
CCC(C)(C)n1nnnc1C(c1cc2cc(C)cc(C)c2[nH]c1=O)N1CCN(Cc2ccc3c(c2)OCO3)CC1 (centres undefined),–,inactive: 5.75%
COc1ccc(Nc2ccc(OC)cc2)cc1,"inconclusive: 17.8 µM [quencher, side channel, partial curve, poor fit]",–
CC1CCCCN1S(=O)(=O)c1ccc(NC(=O)c2cccs2)cc1 (centres undefined),–,inactive: -1.28%
Cc1cc(NC(=O)c2ocnc2C)no1,–,inactive: 14.4%
CSc1ccccc1NC(=O)c1noc2c1CCC2,"inconclusive: 3.98 µM [quencher, side channel, single point]",–
O=C(NCCCN1CCCC1=O)c1cc2nc(-c3ccco3)cc(C(F)(F)F)n2n1,"inconclusive: 20 µM [quencher, partial curve]",–
CCOC(=O)c1c(NC(=O)c2ccco2)sc2c1CCCCC2,–,inactive: 2.06%
O=C(Nc1ccc(Cl)c(Cl)c1)Nc1cc(S(=O)(=O)N2CCOCC2)ccc1N1CCCC1,–,inactive: 6.8%
Cc1ccc(-c2nn(C)c(=O)c3ccccc23)cc1S(=O)(=O)N1CCCC1,"inconclusive: 39.8 µM [quencher, side channel, single point]",–
COCCCNC(=O)CC(=O)N/N=C\c1ccc(SC)cc1,"inconclusive: 12.6 µM [quencher, side channel, partial curve]",–
O=C(CNC(=O)c1cccs1)N/N=C/c1ccccc1[N+](=O)[O-],"inconclusive: 8.91 µM [quencher, partial curve]",–
C/C=C\C=C\C(=O)N1CC2(CC(c3cccc(NC(=O)/C(C)=C\C)c3)=NO2)C[C@H]1C(N)=O (some centres undefined),"inconclusive: 7.94 µM [quencher, side channel, partial curve]",–
Cn1cc([N+](=O)[O-])cc1-c1nc2ccccc2n1C,"inconclusive: 31.6 µM [quencher, side channel, single point]",–
O=C(NCc1ccco1)c1sc2cc(Cl)ccc2c1Cl,"inconclusive: 0.708 µM [quencher, side channel, partial curve, poor fit]",–
COC(=O)c1cc(Sc2cccc(Cl)c2Cl)ccn1,–,inactive: 0.656%
CCN1CCCC1CNC(=O)Cn1nc(C)n2c(cc3cc(C)ccc32)c1=O (centres undefined),"inconclusive: 10 µM [quencher, side channel, partial curve]",–
Cc1ccc(S(=O)(=O)N(Cc2cc3cc4c(cc3[nH]c2=O)OCCO4)CC2CCCO2)cc1 (centres undefined),–,inactive: 42.5%
CCN(C(=O)COC(=O)c1c2c(nc3ccccc13)/C(=C/c1ccccc1)CC(C)C2)C1CCS(=O)(=O)C1 (centres undefined),"inconclusive: 0.891 µM [quencher, side channel, partial curve]",–
CCc1ccc(S(=O)(=O)Nc2cc(SCC(=O)O)c(O)c3ccccc23)cc1,"inconclusive: 15.8 µM [quencher, side channel, partial curve]",–

Structure (SMILES),Potency,"activity change, negative = inhibition"
CSc1ncc(CN2CCCC(C(=O)c3ccc(C(C)(C)C)cc3)C2)cn1 (centres undefined),–,inactive: 8.8%
CCC(=O)Nc1ccc(NC(=O)CSc2nnc(-c3ccc(O)cc3)n2CC2CCCO2)cc1 (centres undefined),–,inactive: 7.63%
CCC[n+]1c2ccccc2cc2ccccc21,"inconclusive: 35.5 µM [quencher, side channel, single point]",–
O=C(CSc1nnc(-c2cccnc2)o1)Oc1ccccc1,–,inactive: 11.3%
COc1ccc(NC(=O)CSc2nnc(-c3ccco3)c(-c3ccco3)n2)cc1OC,"inconclusive: 25.1 µM [quencher, side channel, partial curve]",–
CCCN1CCN(C(=O)c2cc3c(s2)-c2ccccc2S(=O)(=O)C3)CC1,"inconclusive: 20 µM [quencher, side channel, partial curve]",–
COc1ccc(/C=C/C(=O)NC(=S)NNC(=O)Cc2cccs2)cc1,–,inactive: 10.1%
CC(=O)OCc1c(COC(C)=O)[n+](=O)c2ccccc2n1[O-],"inconclusive: 14.1 µM [quencher, partial curve]",–
O=C(CN1C(=O)c2ccccc2C1=O)N1CCN(c2ccccc2)CC1,"inconclusive: 12.6 µM [quencher, side channel, partial curve]",–
COc1ccc(N=Nc2c(N)n[nH]c2N)cc1,"inconclusive: 35.5 µM [quencher, side channel, single point]",–
S=C(NNc1ccnc2cc(Cl)ccc12)Nc1ccccc1Cl,"inconclusive: 3.16 µM [fluorescent, side channel, partial curve]",–
O=c1c2cc3c(=O)n(CC4CCCO4)c(=O)c3cc2c(=O)n1CC1CCCO1 (centres undefined),"inconclusive: 3.55 µM [quencher, side channel, full curve]",–
O=C(NCc1cccs1)c1cc(-c2ccccc2)nc2ccccc12,–,inactive: 3.38%
Cc1cc(C)cc(C(=O)NC(CC(N)=O)c2ccc(N3CCC(N4CCCCC4)CC3)c([N+](=O)[O-])c2)c1 (centres undefined),"inconclusive: 25.1 µM [quencher, side channel, partial curve]",–
Cc1ccc2cc3cc(C(=O)NCc4ccco4)oc3nc2c1,"inconclusive: 7.08 µM [quencher, side channel, partial curve]",–
OCCCc1nc2n(n1)C(c1cccs1)C=C(c1ccccc1)N2 (centres undefined),"inconclusive: 15.8 µM [quencher, side channel, partial curve]",–
Cn1c(C(=O)NCCc2ccccc2)cc(=O)n(C)c1=O,–,inactive: 0.973%
S=C(c1ccc(-c2ccccc2Cl)o1)N1CCOCC1,"inconclusive: 39.8 µM [quencher, side channel, single point]",–
CCN(CC)c1ccc(C=Nc2ccc(C)cc2C)c(O)c1,"inconclusive: 17.8 µM [quencher, side channel, single point]",–
CC(C)(C)CC(=O)O/N=C(\N)c1ccccn1,"inconclusive: 0.1 µM [fluorescent, side channel, full curve, poor fit]",–
Cc1ccc(C(=O)NCCCn2ccnc2)cc1[N+](=O)[O-],"inconclusive: 28.2 µM [quencher, side channel, partial curve]",–
Cc1nc(-c2ccccc2)sc1C(=O)NN,–,inactive: 13.8%

Structure (SMILES),Potency,"activity change, negative = inhibition"
C/C(=N\Nc1ccc(Cl)c(C(=O)O)c1)c1cccc([N+](=O)[O-])c1,"inconclusive: 20 µM [quencher, side channel, partial curve]",–
CN1CCc2c(sc3nc(SCC(N)=O)n(-c4ccc(Cl)cc4)c(=O)c23)C1,"inconclusive: 31.6 µM [quencher, side channel, single point]",–
O=C(C1=C(O)C(=O)N(CCOCCO)C1c1cccs1)c1cccs1 (centres undefined),"inconclusive: 11.2 µM [quencher, side channel, partial curve]",–
CC1(C)Cc2c(cnn2-c2cccc(F)c2)C(NC(=O)CCc2cnccn2)C1 (centres undefined),–,inactive: -1.51%
CCOC(=O)Nc1nnc(/C=C/c2ccc(OC)cc2)s1,"inconclusive: 17.8 µM [quencher, side channel, partial curve]",–
Fc1cccc(CSc2ncnc3c2oc2ccccc23)c1,"inconclusive: 28.2 µM [fluorescent, side channel, partial curve]",–
O=C(O)c1ccccc1S(=O)(=O)CC(=O)N1CCCCC1,–,inactive: -4.25%
Cc1ccc(-c2nnc(Nc3ccc(CC(N)=O)cc3)c3ccccc23)cc1S(=O)(=O)NCC1CCCO1 (centres undefined),"inconclusive: 25.1 µM [quencher, side channel, partial curve]",–
CN(C)C(=S)Nc1ccc2ccccc2c1,–,inactive: 2.91%
CCNC(=O)c1sc(=S)n(-c2ccc(C)cc2)c1N,"inconclusive: 11.2 µM [quencher, side channel, partial curve]",–
CCCS(=O)(=O)c1c(S(=O)(=O)CCC)c2cnccn2c1C(=O)c1ccc(Cl)cc1,"inconclusive: 3.16 µM [quencher, side channel, partial curve]",–
NC(=O)COC(=O)CNC(=O)c1cc(Cl)cc([N+](=O)[O-])c1,"inconclusive: 8.91 µM [quencher, side channel, partial curve]",–
CN(C)c1ccc(/C=N/NC(=O)c2ccc3c(c2)OCO3)cc1,"inconclusive: 25.1 µM [quencher, side channel, single point]",–
O=C(C1=C(O)C(=O)N(CCN2CCOCC2)C1c1cccnc1)c1cc2ccccc2o1 (centres undefined),–,inactive: 20.2%
O=C(c1cc(-c2ccc(Br)cc2)on1)N1CCc2ccccc2C1,–,inactive: -6.55%
Cc1ccc2nsnc2c1N,"inconclusive: 31.6 µM [quencher, side channel, single point]",–
CC1CCC(NC(=O)C2CCC(CNS(=O)(=O)c3cccc4nsnc34)CC2)CC1 (centres undefined),"inconclusive: 12.6 µM [quencher, side channel, partial curve]",–
CCN1CC=C2C(C#N)=C(N)C(C#N)(C#N)[C@H](c3ccoc3)[C@H]2C1,"inconclusive: 22.4 µM [quencher, side channel, single point]",–
O=C(c1cccc(Cl)c1)N1CCC(c2nc3ccccc3[nH]2)CC1,"inconclusive: 7.94 µM [quencher, side channel, single point]",–
O=C(NCCCCc1ccccc1)c1cc([N+](=O)[O-])cc([N+](=O)[O-])c1,"inconclusive: 12.6 µM [quencher, side channel, partial curve]",–
